According to PubChem BioAssay AID504339 (National Center for Advancing Translational Sciences (NCATS), 2011):
Among all 390,000 compounds or so, about 17,000 (4.4%) were called active. Inconclusive means that the source gave no clear call. Such entries were picked first, then a sample of the others. The call rests on the fitted dose curve; in most records, active means well fitted inhibition curve with a large enough effect; inconclusive means small, poorly fitted or top-dose-only effect; inactive means no such curve, though single readings can be large or run the other way. Potencies of inconclusive entries are doubtful fits and often do not repeat.

target: Lysine-specific demethylase 4A (Homo sapiens) (UniProt O75164); assay: qHTS Assay for Inhibitors of JMJD2A-Tudor Domain; details: AlphaScreen JMJD2A-Tudor / H3K4me3 peptide binding; series mostly up to 114 µM; further: nearly all actives have a fitted effect of over 50% in size
Sequence of UniProt O75164 (O75164 whole entry, looked up, the tested form may be a part): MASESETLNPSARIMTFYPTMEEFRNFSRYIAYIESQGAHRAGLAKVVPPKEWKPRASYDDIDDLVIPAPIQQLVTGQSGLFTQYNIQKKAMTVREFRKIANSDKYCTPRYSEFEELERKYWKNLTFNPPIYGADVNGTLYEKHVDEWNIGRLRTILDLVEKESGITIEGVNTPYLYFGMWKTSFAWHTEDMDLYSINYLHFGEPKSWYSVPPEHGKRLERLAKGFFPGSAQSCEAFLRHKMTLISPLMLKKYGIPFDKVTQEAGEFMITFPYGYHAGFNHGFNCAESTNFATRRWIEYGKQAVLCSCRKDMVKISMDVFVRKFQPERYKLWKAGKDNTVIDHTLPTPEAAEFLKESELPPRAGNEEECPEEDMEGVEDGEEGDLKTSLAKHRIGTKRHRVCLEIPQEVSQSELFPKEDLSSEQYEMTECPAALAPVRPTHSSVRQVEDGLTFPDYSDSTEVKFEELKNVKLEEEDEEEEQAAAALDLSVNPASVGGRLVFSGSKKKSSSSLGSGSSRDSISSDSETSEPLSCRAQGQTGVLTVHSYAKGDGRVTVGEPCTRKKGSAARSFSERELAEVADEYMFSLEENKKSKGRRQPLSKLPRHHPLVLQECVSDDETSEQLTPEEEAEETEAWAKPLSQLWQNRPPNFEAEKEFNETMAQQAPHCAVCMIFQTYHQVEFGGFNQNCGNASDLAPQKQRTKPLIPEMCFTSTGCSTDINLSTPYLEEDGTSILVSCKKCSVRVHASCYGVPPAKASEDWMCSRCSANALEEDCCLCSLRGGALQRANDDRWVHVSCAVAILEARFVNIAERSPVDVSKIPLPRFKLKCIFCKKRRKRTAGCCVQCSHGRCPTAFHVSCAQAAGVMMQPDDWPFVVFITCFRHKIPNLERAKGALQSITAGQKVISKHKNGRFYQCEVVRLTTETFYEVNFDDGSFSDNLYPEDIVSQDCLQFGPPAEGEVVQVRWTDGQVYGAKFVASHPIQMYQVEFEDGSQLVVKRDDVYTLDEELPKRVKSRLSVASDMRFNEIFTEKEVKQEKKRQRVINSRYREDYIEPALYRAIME
Potency means the concentration at half of the fitted maximal effect; tags describe the fitted curve by direction and shape.

Row | Structure (SMILES) | Potency
1 | O=C(NCc1ccccn1)C1CCN(S(=O)(=O)c2cnc[nH]2)CC1 | inconclusive: 79.4 µM [inhibitor, single point]
2 | C=CC[n+]1c(-c2ccc(OCC)cc2)csc1NNC(=O)Nc1ccccc1 | active: 22.4 µM
3 | O=C(CSc1nnc2ccccn12)NC(=O)NC1CCCC1 | inactive
4 | CC(=O)N1CCN(S(=O)(=O)c2ccc3c(c2)CC(=O)N3)CC1 | inactive
5 | CCCCOc1ccc(-c2c(C#N)c(N)[nH]c(=S)c2C#N)cc1 | inconclusive: 79.4 µM [inhibitor, single point]
6 | COc1cc2c(cc1OC)C(COc1ccc(F)cc1)N(C(=O)c1cccc(F)c1)CC2 (stereo not drawn) | inconclusive: 50.1 µM [inhibitor, partial curve]
7 | CCc1ccc(Nc2nnc(SCC(=O)NC(=O)CN3CCCC3=O)s2)cc1 | inconclusive: 28.2 µM [inhibitor, partial curve]
8 | CC/C(=N/Nc1cccc(C)c1)c1cnnc(SC)n1 | active: 56.2 µM
9 | CCn1c2ccccc2c2cc(CN3CCN(S(C)(=O)=O)CC3)ccc21 | inconclusive: 44.7 µM [inhibitor, partial curve]
10 | CC(OC(=O)c1cccc(N(C)C)c1)C(=O)N1CCc2ccccc2C1 (stereo not drawn) | inconclusive: 44.7 µM [inhibitor, full curve, poor fit]
11 | O=c1cc(CSc2ccc(Cl)cc2)[nH]c2[nH]n(-c3ccccc3)c(=O)c12 | inconclusive: 50.1 µM [inhibitor, partial curve]
12 | COc1ccccc1CNCC(=O)Nc1ccc(C#N)cc1 | inconclusive: 63.1 µM [inhibitor, single point]
13 | CCc1ccc2nc(Nc3nc(COC)cc(=O)[nH]3)nc(C)c2c1 | inactive
14 | Cn1cc(C=C2C(=O)CC(C)(C)CC2=O)c2ccccc21 | inconclusive: 50.1 µM [inhibitor, partial curve]
15 | COC(=O)c1c(C)[nH]c(C)c1C(=O)c1ccccc1Cc1ccccc1 | inconclusive: 50.1 µM [inhibitor, partial curve]
16 | NS(=O)(=O)c1cccc(NC(=O)CSc2ncnc3ccccc23)c1 | inactive
17 | Cc1ccnc(NC(=O)CCC(=O)N(Cc2ccco2)C(C(=O)NC(C)C)c2ccc(F)cc2)c1 (stereo not drawn) | inactive
18 | Cc1ccccc1NC(=O)c1ccc(Nc2c([N+](=O)[O-])cc([N+](=O)[O-])c3ccccc23)cc1 | inconclusive: 11.2 µM [inhibitor, full curve]
19 | CN1CCN(CC(=O)N2c3ccccc3Sc3ccccc32)CC1 | inactive
20 | Cc1ccc(Nc2nc(N)nc(CSC(=S)N3CCOCC3)n2)c(C)c1 | inconclusive: 89.1 µM [inhibitor, partial curve]
21 | C=CCn1c(CSc2nc3ccccc3s2)nnc1SCC(=O)NCc1ccco1 | inconclusive: 79.4 µM [inhibitor, partial curve]
22 | CC(=O)N(C)c1ccc(NS(=O)(=O)Cc2ccccc2)cc1 | inactive
23 | COc1ccc(-c2nc3cccc(C)n3c2NCc2ccco2)cc1OC | inconclusive: 79.4 µM [inhibitor, partial curve]
24 | CCOC(=O)c1ccc(N2CCN(c3cc(C)ccc3C)CC2)c(N)c1 | inconclusive: 10 µM [inhibitor, partial curve]
25 | CCN1CCN(C(c2cc3cc4c(cc3[nH]c2=O)OCO4)c2nnnn2C(C)(C)CC)CC1 (stereo not drawn) | inactive

Row | Structure (SMILES) | Potency
26 | Cc1cc(C)c(C)c(S(=O)(=O)N2CCC(C(=O)Nc3ccncc3)CC2)c1C | inactive
27 | Clc1ccc(Cc2noc(CN3CCN(c4ccccc4)CC3)n2)c(Cl)c1 | inactive
28 | CCc1cc(C(=O)Cc2ccccn2)c(O)cc1O | inconclusive: 25.1 µM [inhibitor, partial curve]
29 | Cc1cc(C)n(-c2ccc([N+](=O)[O-])cc2-c2nn[nH]n2)n1 | inactive
30 | O=C(NCCN1CCOCC1)c1cccnc1SCc1ccccc1Cl | inactive
31 | CNc1sc(C(=O)c2ccccc2F)c(N)c1-c1nc2ccccc2s1 | active: 50.1 µM
32 | COc1ccc(/C(O)=C2/C(=O)C(=O)N(CCN3CCOCC3)C2c2cccnc2)cc1OC (stereo not drawn) | inconclusive: 35.5 µM [inhibitor, full curve, poor fit]
33 | Cc1ccccc1-c1nn[nH]n1 | inactive
34 | O=C(c1cccs1)n1nc(-c2ccccc2)nc1NCc1ccco1 | inconclusive: 31.6 µM [inhibitor, single point]
35 | O=C(COc1ccc(Cl)cc1)Nc1ccc(N2CCN(C(=O)c3ccco3)CC2)cc1 | inconclusive: 44.7 µM [inhibitor, partial curve]
36 | Nc1cc(N2CCCCC2)c([N+](=O)[O-])cc1Cl | inconclusive: 14.1 µM [inhibitor, full curve, poor fit]
37 | CCOC(=O)CNC(=O)c1ccc(OCC(F)(F)F)cc1 | inactive
38 | O=C1NC(=S)NC1=Cc1ccco1 | active: 22.4 µM
39 | CCOCC(=O)Nc1ccc2c(c1)N(S(=O)(=O)c1cccs1)CCC2 | inactive
40 | CC(NC(=O)COc1ccccc1)C(=O)N1CCN(c2ccc(F)cc2)CC1 (stereo not drawn) | inactive
41 | O=C(Nc1ccc2nc(-c3ccccc3)[nH]c2c1)c1cccs1 | inactive
42 | CCCCNc1c(-c2ccc(-c3ccc(C(C)=O)cc3)c(OC)c2)nc2cc(C)ccn12 | inconclusive: 50.1 µM [inhibitor, partial curve]
43 | CCOc1cc(/C=C2\CN(CC)C/C(=C\c3ccc(O)c(OCC)c3)C2=O)ccc1O | active: 56.2 µM
44 | CC(=O)N1c2ccc(S(=O)(=O)N3CCC(C(=O)Nc4cccc(C)c4C)CC3)cc2CC1C (stereo not drawn) | inconclusive: 25.1 µM [inhibitor, full curve]
45 | COc1ccc(C(=O)NC(=S)Nc2ccccc2N2CCOCC2)cc1[N+](=O)[O-] | inconclusive: 70.8 µM [inhibitor, single point]
46 | CCCCOc1ccc(S(=O)(=O)NNC(=O)C2Cc3c(ccc4ccccc34)O2)cc1 (stereo not drawn) | inconclusive: 12.6 µM [inhibitor, partial curve]
47 | CC(C)(C)OC(=O)CNC(=O)c1[nH]cnc1C(=O)NCCCCCNC(=O)OC(C)(C)C | inconclusive: 35.5 µM [inhibitor, full curve, poor fit]
48 | COc1ccc(-c2cc(C(=O)NCC3CCCO3)c3cc(C(C)C)ccc3n2)cc1 (stereo not drawn) | inconclusive: 50.1 µM [inhibitor, partial curve]
49 | CN1C(=O)c2[nH]nc(-c3ccc(F)cc3)c2C1c1cccc(O)c1 (stereo not drawn) | inactive
50 | COc1ccc(C2Cc3ccccc3C(=O)N2Cc2ccccc2)cc1COc1ccc(NC(C)=O)cc1 (stereo not drawn) | inconclusive: 56.2 µM [inhibitor, partial curve]

Row | Structure (SMILES) | Potency
51 | COc1ccc(OC)c(CNC(=O)CCc2cn(C)c3ccccc23)c1 | inconclusive: 79.4 µM [inhibitor, partial curve]
52 | CCN1CCN(c2cc(SC(C)C)nc(-c3ccc(OC)cc3)n2)CC1 | inconclusive: 50.1 µM [inhibitor, partial curve]
53 | CC1=CC(c2ccc(Cl)cc2)n2nc(NC(=O)CCC(=O)O)nc2N1 (stereo not drawn) | inconclusive: 17.8 µM [inhibitor, partial curve, poor fit]
54 | CCCN(C(=O)COC(=O)CNC(=O)c1ccc2ccccc2c1)c1c(N)n(Cc2ccccc2)c(=O)[nH]c1=O | inconclusive: 2.82 µM [inhibitor, partial curve, poor fit]
55 | COc1ccc2[nH]c(=O)c(CN(C)C(=O)c3cccs3)cc2c1 | inconclusive: 17.8 µM [inhibitor, partial curve]
56 | CN(CC(=O)Nc1ccc(N2CCOCC2)cc1)CC(=O)Nc1ccc([N+](=O)[O-])cc1Br | inactive
57 | Cc1ccc(-c2nn(-c3ccccc3)cc2CN(Cc2ccccc2)C(=O)c2ccco2)o1 | active: 56.2 µM
58 | Cc1ccc(S(=O)(=O)/N=C2\C=C(Nc3cccc(C(=O)O)c3)C(=O)c3ccccc32)cc1 | active: 44.7 µM
59 | C#CCN1N=C(c2ccc(C)cc2)CSC1=O | inactive
60 | Oc1ccc(Br)cc1/C=N/n1c(C2CCCCC2)n[nH]c1=S | inconclusive: 17.8 µM [inhibitor, full curve, poor fit]
61 | O=C(O)[C@@H](c1ccccc1)N1Cc2ccccc2C1=O | active: 25.1 µM
62 | CCN=c1scc(-c2ccc(F)cc2)n1/N=C/c1ccccn1 | inconclusive: 14.1 µM [inhibitor, partial curve]
63 | Cc1ccc(C(=C2C3C=CC2C2C(=O)NC(=O)C32)c2ccc(C)cc2)cc1 (stereo not drawn) | inconclusive: 44.7 µM [inhibitor, partial curve]
64 | CCCCCCCN1N=C(C)C(C(=O)c2ccccc2)C1=O (stereo not drawn) | active: 50.1 µM
65 | CC1(c2ccccc2)C(C#N)C(=O)NC(=O)C1C#N (stereo not drawn) | inactive
66 | CCOc1ccccc1Oc1cn[nH]c1-c1ccc(OC)cc1O | inconclusive: 56.2 µM [inhibitor, partial curve]
67 | NNC(=O)c1cccn(Cc2ccc(Cl)cc2Cl)c1=O | inactive
68 | Cn1c(NCCCCO)nc2c1c(=O)n(Cc1ccc(Cl)cc1)c(=O)n2C | inactive
69 | CCc1nnc(NC(=O)c2nc(S(=O)(=O)Cc3cccc(C)c3)ncc2Cl)s1 | active: 2.82 µM
70 | CCC(C(=O)Nc1ccccc1C(=O)OC)n1c(C)c2cnn(-c3ccccc3)c(=O)c2c1C (stereo not drawn) | inconclusive: 50.1 µM [inhibitor, partial curve]
71 | COc1cc(OC)cc(C(=O)N2CCN(C3CCCCC3)CC2)c1 | active: 22.4 µM
72 | COc1ccc(C(=O)N(Cc2cccs2)Cc2cccs2)c(O)c1 | inactive
73 | O=C(Nc1cc(Sc2ccccn2)cc([N+](=O)[O-])c1)c1ccc([N+](=O)[O-])cc1 | active: 3.16 µM
